We go through 61 compounds from PubChem BioAssay AID1159614 (National Center for Advancing Translational Sciences (NCATS), 2016).

The whole screen tested about 45,000 compounds, of which about 65 (0.1%) were called active. Calls follow the shape of the dose curve; as a rule, active = well fitted activation curve with a large enough effect; inconclusive = small, poorly fitted or top-dose-only effect; inactive = no such curve, though single readings can be large or run the other way. This is one part of the list.

The target of this assay is Galactocerebrosidase (Homo sapiens) (UniProt P54803). Briefly: A Novel Cell-Based Assay to Identify Small Molecules for B -Galactocerebrosidase. Also: 0% is about no effect; nearly all actives have a fitted effect of over 65% in size. Particulars: 145M-Twi-hGALC-G270D cells (Twitcher mouse brain line with human GALC G270D), HMU-beta-Gal fluorescence, 48 h; series mostly up to 57.5 µM; activation: at the top concentration. The method, boiled down: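 Fluorescence readout: HMU-β-gal cleavage by mutant GALC (0.1 mM final, citrate/phosphate pH 5.2 with 1 mg/mL taurocholate), stopped with carbonate/bicarbonate plus Triton X-100. Cells: murine Twitcher 145M-Twi expressing human G270D GALC; qHTS for activators.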
Chain of UniProt P54803 (P54803 whole entry, looked up): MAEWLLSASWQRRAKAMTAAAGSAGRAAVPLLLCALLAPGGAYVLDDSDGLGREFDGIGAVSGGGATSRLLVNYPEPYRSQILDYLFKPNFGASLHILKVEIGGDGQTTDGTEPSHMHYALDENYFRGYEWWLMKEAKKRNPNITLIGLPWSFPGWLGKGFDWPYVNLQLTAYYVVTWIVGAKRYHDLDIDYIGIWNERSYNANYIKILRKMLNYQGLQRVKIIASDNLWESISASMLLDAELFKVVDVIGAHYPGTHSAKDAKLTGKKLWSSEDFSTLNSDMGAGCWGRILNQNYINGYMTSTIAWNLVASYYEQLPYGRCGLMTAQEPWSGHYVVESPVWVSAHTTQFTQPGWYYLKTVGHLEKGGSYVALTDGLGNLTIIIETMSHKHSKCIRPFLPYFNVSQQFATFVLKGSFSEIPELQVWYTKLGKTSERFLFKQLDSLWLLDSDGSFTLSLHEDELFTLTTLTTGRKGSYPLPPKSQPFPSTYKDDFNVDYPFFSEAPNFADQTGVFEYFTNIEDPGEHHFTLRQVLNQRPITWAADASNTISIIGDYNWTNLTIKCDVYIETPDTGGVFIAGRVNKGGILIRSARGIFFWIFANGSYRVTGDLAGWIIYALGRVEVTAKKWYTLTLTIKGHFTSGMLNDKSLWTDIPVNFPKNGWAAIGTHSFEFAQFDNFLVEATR
As to `CCOCCCNC(=O)CN1C(=O)COc2ccc(S(=O)(=O)N3CCCCCC3)cc21`, the “activation” value is inactive: -6.96%.

As to `CCc1cccc(C)c1NC(=O)CCCn1c(=O)c2cccn2c2cccnc21`, the “activation” value is inactive: -13.2%.

With `CC(C(=O)NCc1ccccc1Cl)n1ccc2cc(S(=O)(=O)N3CCCCC3)ccc21` (stereo unspecified), the “activation” value is inactive: 8.98%.

With `CC(=O)c1ccc(N2CCN(c3ccc(NC(=O)c4cccs4)cc3C(=O)O)CC2)cc1`, the “activation” value was inactive: 15.8%.

In the case of `Cc1ccc(NC(=O)CSc2nnc3nc(C)cc(C)n23)cc1`, the “activation” value was inactive: 10.9%.

In the case of `Cc1cccc(Cn2ccn(Cc3ccc(Cl)cc3)c(=O)c2=O)c1`, the “activation” value is inactive: -16.8%.

In the case of `O=c1c2ccccc2n2c(-c3ccccc3O)nnc2n1Cc1ccc(F)cc1`, the “activation” value was inactive: -14.6%.

Turning to `Cc1ccc(C)c(NC(=O)CN2C(=O)c3cccc4cccc2c34)c1`, the “activation” value was inactive: 5.34%.

As to `CCOC(=O)c1ccccc1NC(=O)NC(C)c1c(-n2cccc2)sc(C)c1C` (stereo unspecified), the “activation” value was inactive: 5.8%.

For `O=C(c1ccc2c(c1)N(Cc1ccccc1)C(=O)c1ccccc1S2(=O)=O)N1CCCC1`, the “activation” value was inactive: -0.924%.

For `CCC(Sc1nc2c(sc3ccccc32)c(=O)n1CCc1ccccc1)C(=O)N(CC)CC` (stereo unspecified), the “activation” value was inactive: -12.4%.

Take `CCCCCC(=O)N1c2ccccc2C(C)(c2ccccc2)CC1(C)C` (stereo unspecified): the “activation” value is inactive: -27%.

As for `O=C(c1ccccc1Br)N(Cc1ccco1)C1CCS(=O)(=O)C1` (stereo unspecified), the “activation” value was inactive: -14.6%.

For `COc1ccc(Cn2c(C(=O)O)c(CNCC(C)c3ccccc3)c3ccc(OC)cc32)cc1` (stereo unspecified), the “activation” value is inactive: -7.6%.

For the compound `Cc1ccc(C)c(N2CCN(C(=O)Nc3cn(CC(C)C)c(=O)c4ccccc34)CC2)c1`, the “activation” value is inactive: -21%.

For `COc1ccc(NC(=O)CN2C(=O)C(c3ccc(C(C)(C)C)cc3)=NC2(C)C)cc1Cl`, the “activation” value was inactive: -3.19%.

As to `COc1cccc(CCNC(=O)Cn2c(-c3cccs3)cc3ccccc32)c1`, the “activation” value is inactive: -7.3%.

Take `Cc1cc(C)cc(-n2c(SCC(=O)NCc3ccco3)nc3c([nH]c4ccccc43)c2=O)c1`: the “activation” value was inactive: -5.28%.

In the case of `CCOC(=O)N1CCN(Cc2nc3cc(NC(C)=O)ccc3n2C(C)C)CC1`, the “activation” value was inactive: -21.3%.

On to `CC(C)NC(=O)CCn1c(SCc2c(F)cccc2Cl)nc2c(sc3ccccc32)c1=O`, for which the “activation” value is inactive: -13.3%.

For `Cc1cccc(Cc2cnc(NC(=O)C3Cc4ccc(C)cc4C(=O)O3)s2)c1` (stereo unspecified), the “activation” value is inactive: 1.16%.

With `COc1cccc(Cn2c(=O)n(CC3CCC(C(=O)N4CCCCC4)CC3)c(=O)c3sccc32)c1` (stereo unspecified), the “activation” value is inactive: -12.5%.

With `COc1ccccc1N1CCN(C(=O)C2CCN(S(=O)(=O)c3c(C)noc3/C=C/c3ccc(C)cc3)CC2)CC1`, the “activation” value was inactive: -10.6%.

`CCCCn1c(SCC(=O)Nc2cccc(OC)c2)nc2c(sc3ccccc32)c1=O`: the “activation” value was inactive: -15%.

As for `CCOC(=O)c1cc(-c2ccc(C)cc2)n(CCC(=O)Nc2nc3c(C)cccc3s2)c1C`, the “activation” value was inactive: -5.47%.

In the case of `Cc1cc(-n2c(SCC(=O)NCc3ccccc3)nc3ccsc3c2=O)ccc1Cl`, the “activation” value is inactive: -2.63%.

Regarding `Cc1ccc2c(c1)c(=O)c1ccccc1n2CCCC(=O)Nc1ccc(C)c(F)c1`, the “activation” value was inactive: -0.167%.

On to `Cc1nnc2c(N3CCN(c4ccccc4F)CC3)nc3ccccc3n12`, for which the “activation” value is inactive: -8.89%.

On to `COc1ccc(NC(=O)NCCc2c(C)nn(C)c2C)c(OC)c1`, for which the “activation” value was inactive: 0.964%.

On to `CCc1ccc(NC(=O)CSc2nnc3[nH]c(=O)cc(-c4ccccc4)n23)cc1`, for which the “activation” value was inactive: -2.64%.

For the compound `CCOC(=O)c1c(C)[nH]c(CCC(=O)Nc2ccccc2C(F)(F)F)c1C`, the “activation” value is inactive: -0.467%.

As to `CCCS(=O)(=O)N1CC(=O)N(c2cccc(F)c2)C(C)(C(=O)NC2CCCCCC2)C1` (stereo unspecified), the “activation” value is inactive: -16.2%.

Turning to `COc1ccc(C(=O)Nc2ccc(S(=O)(=O)Nc3cc(C)nc(C)n3)cc2)cc1`, the “activation” value is inactive: -14.5%.

With `O=C(CCS(=O)(=O)c1cc2c(cc1Cl)NC(=O)CO2)NCCc1ccccc1`, the “activation” value was inactive: -14.9%.

For the compound `CCN(C(=O)CCc1nc(-c2ccc(C)cc2)no1)c1cccc(C(F)(F)F)c1`, the “activation” value is inactive: -2.68%.

Turning to `Cc1cc(NS(=O)(=O)c2ccc(N)cc2)no1`, the “activation” value was inactive: -11%.

Turning to `Cc1cccc(N2CCN(C(=O)c3nn(C)c4c3CS(=O)(=O)c3ccccc3-4)CC2)c1C`, the “activation” value was inactive: -6.91%.

For `COc1ccc(CNC(=O)c2ccc3c(O)c(S(=O)(=O)c4ccccc4)c(=O)[nH]c3c2)cc1`, the “activation” value was inactive: -15.3%.

As to `CS(=O)(=O)N(Cc1ccccc1)c1ccc(C(=O)Nc2cccc(Cl)c2)cc1`, the “activation” value is inactive: -0.581%.

Take `COc1ccc(NC(=O)c2c(NC(=O)C(F)(F)F)sc3c2CCCCC3)cc1`: the “activation” value is inactive: -12.5%.

`COc1ccc(Cn2ccc3nc(C)c(C(=O)N4CCN(c5cccc(OC)c5)CC4)cc3c2=O)cc1`: the “activation” value is inactive: -6.64%.

On to `CCCCC1CCC(C(=O)N2CC(=O)Nc3ccc(C)cc3C2c2ccc(F)cc2)CC1` (stereo unspecified), for which the “activation” value is inactive: -8.45%.

`COc1cc(CNc2ccc3[nH]c(=O)[nH]c3c2)ccc1OCc1ccc(F)cc1Cl`: the “activation” value is inactive: -16%.

As to `COC(=O)c1ccc2c(=O)n3nc(Nc4ccc(F)cc4F)sc3nc2c1`, the “activation” value is inactive: -16.9%.

Regarding `COc1ccc(CN2CCc3c(c(=O)n4ncc(C(=O)N5CCN(c6ccccc6F)CC5)c4n3C)C2)cc1`, the “activation” value was inactive: -27.1%.

As for `COc1ccccc1N1CCN(C(=O)c2cc(-c3ccc(C)c(F)c3)on2)CC1`, the “activation” value is inactive: -8.68%.

`O=C(Nc1cccc(C(F)(F)F)c1)Nc1nnc(N2CCCCCC2)s1`: the “activation” value is inactive: -13.6%.

As to `COCCCNC(=O)CN1C(=O)c2cccnc2Sc2ccccc21`, the “activation” value is inactive: -14.6%.

`CC(=O)c1cccc(NC(=O)CN2C(=O)CCc3cc(S(=O)(=O)N4CCCCC4)ccc32)c1`: the “activation” value is inactive: -6.21%.

In the case of `CCOc1ccc(S(=O)(=O)N2Cc3ccccc3CC2C(=O)Nc2ccc(NC(C)=O)cc2)cc1` (stereo unspecified), the “activation” value is inactive: -25.4%.

Regarding `CCCCN1CC(c2nc3ccccc3n2CCCCOc2cc(C)cc(C)c2)CC1=O` (stereo unspecified), the “activation” value is inactive: -37.5%.

As for `CCN(CC)CCNC(=O)C(=O)Nc1c2c(nn1-c1ccc(F)cc1)CSC2`, the “activation” value is inactive: -12.4%.

As for `COc1cccc2cc(C(=O)Nc3ccc(CC(=O)O)cc3)c(=O)oc12`, the “activation” value was inactive: -9.95%.

For `Cc1ccc(NC(=O)CSc2nc(-c3ccco3)cc(C(F)(F)F)n2)c(C)c1`, the “activation” value was inactive: -4.77%.

For `Cc1cccc(NC(=O)CSc2nc3ccc(NC(=O)COc4ccccc4C)cc3s2)c1`, the “activation” value was inactive: -6.28%.

As to `CCCNC(=O)CCC(=O)N1Cc2cccc(OC)c2Oc2ncccc21`, the “activation” value is inactive: -10.2%.

Take `CC1CN(C(=O)NCc2ccccc2)c2cc(Cl)ccc2O1` (stereo unspecified): the “activation” value is inactive: -9.34%.

In the case of `CCn1c2c(c(=O)n3ncc(C(=O)Nc4cc(Cl)ccc4OC)c13)CN(Cc1ccc(OC)cc1)CC2`, the “activation” value is inactive: -8.18%.

Turning to `Cc1c(C(=O)OCCOc2ccccc2)[nH]c2c1C(=O)CC(c1ccc(C(C)(C)C)cc1)C2` (stereo unspecified), the “activation” value is inactive: -16.3%.

With `O=C(NCc1ccc(Cl)cc1)C1CCN(c2nn3cc(-c4ccc(F)cc4)nc3s2)CC1`, the “activation” value was inactive: -0.469%.

With `CCCCc1cc(=O)oc2cc(C)c3c(C(C)(C)C)coc3c12`, the “activation” value was inactive: -37.9%.
